# From the supplement of paper PMC8728848
# The other results are listed elsewhere or left out.
# Assays:
# Test in all cases: glycan array binding signal (z-score within array); higher = stronger binding
# Settings in all cases: glycan notation: IUPAC condensed, linker removed
# [1] = molecular target: Gal(b1-4)GalNAc(b1-3)[Fuc(a1-2)]Gal(b1-4)GlcNAc
# Summary of the method: (§1)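 Glycan array data came from 3228 arrays in the Consortium for Functional Glycomics database, and only arrays with an available protein sequence were kept. Glycan names were put into IUPAC-condensed notation, and columns mapping to the same glycan were averaged. The binding signal is a within-array Z-score, averaged across arrays of one protein sequence run at different concentrations or buffers and across linkers. A negative Z-score can be read as non-binding.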
# [2] = molecular target: Gal(b1-4)Glc
# Summary of the method: as §1
# [3] = molecular target: Gal(b1-4)Glc6S
# Summary of the method: as §1
# [4] = molecular target: Gal(b1-4)GlcNAc
# Summary of the method: as §1
# [5] = molecular target: Gal(b1-4)GlcNAc(a1-6)Gal(b1-4)GlcNAc
# Summary of the method: as §1
# [6] = molecular target: Gal(b1-4)GlcNAc(b1-2)Man
# Summary of the method: as §1
# [7] = molecular target: Gal(b1-4)GlcNAc(b1-2)Man(a1-3)Man(b1-4)GlcNAc(b1-4)GlcNAc
# Summary of the method: as §1
# [8] = molecular target: Gal(b1-4)GlcNAc(b1-2)Man(a1-3)[Gal(b1-4)GlcNAc(b1-2)Man(a1-6)]Man(b1-4)GlcNAc(b1-4)GlcNAc
# Summary of the method: as §1
# [9] = molecular target: Gal(b1-4)GlcNAc(b1-2)Man(a1-3)[Gal(b1-4)GlcNAc(b1-2)Man(a1-6)]Man(b1-4)GlcNAc(b1-4)[Fuc(a1-6)]GlcNAc
# Summary of the method: as §1
# [10] = molecular target: Gal(b1-4)GlcNAc(b1-2)Man(a1-3)[Gal(b1-4)GlcNAc(b1-2)Man(a1-6)][Gal(b1-4)GlcNAc(b1-4)]Man(b1-4)GlcNAc(b1-4)[Fuc(a1-6)]GlcNAc
# Summary of the method: as §1
# [11] = molecular target: Gal(b1-4)GlcNAc(b1-2)Man(a1-3)[Gal(b1-4)GlcNAc(b1-2)Man(a1-6)][GlcNAc(b1-4)]Man(b1-4)GlcNAc(b1-4)[Fuc(a1-6)]GlcNAc
# Summary of the method: as §1
# [12] = molecular target: Gal(b1-4)GlcNAc(b1-2)Man(a1-3)[GlcNAc(b1-2)Man(a1-6)]Man(b1-4)GlcNAc(b1-4)GlcNAc
# Summary of the method: as §1
# [13] = molecular target: Gal(b1-4)GlcNAc(b1-2)Man(a1-3)[GlcNAc(b1-4)][Gal(b1-4)GlcNAc(b1-2)Man(a1-6)]Man(b1-4)GlcNAc(b1-4)GlcNAc
# Summary of the method: as §1
# [14] = molecular target: Gal(b1-4)GlcNAc(b1-2)Man(a1-3)[Man(a1-6)]Man(b1-4)GlcNAc(b1-4)GlcNAc
# Summary of the method: as §1
# [15] = molecular target: Gal(b1-4)GlcNAc(b1-2)Man(a1-6)Man(b1-4)GlcNAc(b1-4)GlcNAc
# Summary of the method: as §1
# [16] = molecular target: Gal(b1-4)GlcNAc(b1-2)Man(a1-6)[GlcNAc(b1-2)Man(a1-3)]Man(b1-4)GlcNAc(b1-4)GlcNAc
# Summary of the method: as §1
# [17] = molecular target: Gal(b1-4)GlcNAc(b1-2)Man(a1-6)[Man(a1-3)]Man(b1-4)GlcNAc(b1-4)GlcNAc
# Summary of the method: as §1
# [18] = molecular target: Gal(b1-4)GlcNAc(b1-2)[Gal(b1-4)GlcNAc(b1-4)]Man(a1-3)[Gal(b1-4)GlcNAc(b1-2)Man(a1-6)]Man(b1-4)GlcNAc(b1-4)GlcNAc
# Summary of the method: as §1
# [19] = molecular target: Gal(b1-4)GlcNAc(b1-2)[Gal(b1-4)GlcNAc(b1-4)]Man(a1-3)[Gal(b1-4)GlcNAc(b1-2)[Gal(b1-4)GlcNAc(b1-6)]Man(a1-6)]Man(b1-4)GlcNAc(b1-4)GlcNAc
# Summary of the method: as §1
# [20] = molecular target: Gal(b1-4)GlcNAc(b1-2)[Gal(b1-4)GlcNAc(b1-4)]Man(a1-3)[GlcNAc(b1-4)][Gal(b1-4)GlcNAc(b1-2)Man(a1-6)]Man(b1-4)GlcNAc(b1-4)GlcNAc
# Summary of the method: as §1
# [21] = molecular target: Gal(b1-4)GlcNAc(b1-2)[Gal(b1-4)GlcNAc(b1-4)]Man(a1-3)[GlcNAc(b1-4)][Gal(b1-4)GlcNAc(b1-2)[Gal(b1-4)GlcNAc(b1-6)]Man(a1-6)]Man(b1-4)GlcNAc(b1-4)GlcNAc
# Summary of the method: as §1
# [22] = molecular target: Gal(b1-4)GlcNAc(b1-2)[Gal(b1-4)GlcNAc(b1-6)]Man(a1-6)[Gal(b1-4)GlcNAc(b1-2)Man(a1-3)]Man(b1-4)GlcNAc(b1-4)GlcNAc
# Summary of the method: as §1
binder,measurement,setting,value
APVPVTKLVCDGDTYKCTAYLDFGDGRWVAQWDTNVFHTG [PhoSpL (Pholiota squarrosa)],glycan array binding signal (z-score),[1],-0.431
same,glycan array binding signal (z-score),[2],0.138
same,glycan array binding signal (z-score),[3],-0.231
same,glycan array binding signal (z-score),[4],0.031
same,glycan array binding signal (z-score),[5],-0.288
same,glycan array binding signal (z-score),[6],-0.221
same,glycan array binding signal (z-score),[7],0.18
same,glycan array binding signal (z-score),[8],-0.453
same,glycan array binding signal (z-score),[9],13.4
same,glycan array binding signal (z-score),[10],0.527
same,glycan array binding signal (z-score),[11],-0.011
same,glycan array binding signal (z-score),[12],-0.403
same,glycan array binding signal (z-score),[13],-0.406
same,glycan array binding signal (z-score),[14],0.871
same,glycan array binding signal (z-score),[15],-0.178
same,glycan array binding signal (z-score),[16],-0.432
same,glycan array binding signal (z-score),[17],-0.337
same,glycan array binding signal (z-score),[18],-0.025
same,glycan array binding signal (z-score),[19],-0.639
same,glycan array binding signal (z-score),[20],-0.094
same,glycan array binding signal (z-score),[21],0.046
same,glycan array binding signal (z-score),[22],-0.044
